For one assay, the system named is HOP-62 NSCLC. The assay can be described thus: NCI-60 one-dose screen, 48 h (100 = growth as untreated, 0 = no growth, -100 = all killed). Conditions: 2.5 mM.
For the next assay, the system named is NCI-H460 lung. The assay is described as above. The conditions noted are these: 2.5 mM.

Structures are written as SMILES. Some structures have more than one record in an assay (separate samples or runs), and their calls can disagree.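 48-hour exposure, single concentration, 96-well plates; percent growth endpoint where 0 means no net growth. Active: below 10.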 The source holds more than one record for some entries. This list holds those alone. The source may hold further records. These are repeated runs of one drug, at its own concentration, as given; each value is one run. Additions like (4×) say how often a value occurs here.

On to `O=c1[nH]cc(F)c(=O)[nH]1`, for which the growth entry was “inactive: 20.5, 22.5, 13.2, 29.2, 17.7, 24.7% and active: -34.9, 3.68, -31.2, -24.9, -0.327, 3.42, 6.45, -46.3, -14.3, 5.89, -53.8, -2.58, -66.8%” in the assay on HOP-62 NSCLC (runs of 1991); “inactive: 20.3, 14.7, 24.4, 20.8, 12 (2×), 31.6, 10.6 (2×), 46.2, 22.4, 15.8, 17.4, 23.2, 10.3, 24.3, 23, 20.1, 10.5, 14.3, 20, 17.5, 14.9, 12.3, 14.8, 25.6, 20.6, 23.3, 27.1, 13.3, 14.1, 49.8, 18.7, 30.3, 15.5, 27.8% and active: 0.0673, 4.96, -31, -37.1, -38.5, -28.2, -4.63, -28.5, -10.4, -61.6, 5.13, -17.1, 8.05, 8, -0.253, -17.2, -15.1, -16.5, -17.4, -39.9, 2.71, -3.01, 3.32, 3.31, -6.36, -8.2, -29.6, 3.56, -17.5, -21.4, -5.79, -0.441, -21.5, 4.91, -33.3, -26.8, -31.6, 0.0724, -19.9, 0.201, -4.7, -6.69, 5.09, -0.396, -27.6, -16.2, 7.96, -30.3, -37.5, -22.9, 1.64, 2.06, -10.1, -22, -11.7, -24.1, -49.6, 8.52, -29.3, -46.5, -54.5, -16.8, -21.3, -18.9, 9.02, -25.9, -50.3, 0.251, -35.9, 1.48, -22.3, -40.9, -5.72, -7.45, -42.5, 8.43, -0.42%” in the assay with HOP-62 NSCLC (runs of 1992); “active: -2.9, -21.3, -4.73, -9.25, 5.47, 3.26, 4.65, -56.4, 9.66, 4.49, -14.1, -4.51, -25.4, -31.8, -12.7, 5.12, -13.6, 9.12, -9.33, -8.43, -20.9% and inactive: 26.6, 28.3, 18.6, 36.4, 35.2, 50.8, 30.2, 18.1, 27.1, 30.4, 21.9, 22.7, 11.8, 14.6, 13.1, 21.8, 48.8, 21, 86.9, 28, 40.1, 53, 26.1, 17.7, 24.2, 25.9, 31.9, 44.5%” with HOP-62 NSCLC (runs of 1993); “active: 4.4, -5.51, -31.2, -35.6, -25.3, -18.1, -42, -39.4, 0.242, -17.3, -48.5, -17.6, 3.38, -28.7% and inactive: 33.1, 11.1, 14.9, 11.8, 11.5, 28.3, 42.3, 14.3 (2×), 18.5, 14, 10.6, 13.5, 31.9, 26.1, 28.8, 23.2, 15, 19.1%” in the assay on HOP-62 NSCLC (runs of 1994); “inactive: 37.2, 27.3, 10.7, 13.4, 25, 33.6, 83.7, 24.4, 24.7, 12.1, 18.4, 29.1, 31.8, 38.3, 15.4, 32.3, 25.7, 22.9, 20.8, 18.8, 13, 21.6% and active: -29.9, 3.54, -21.1, -13.5, 4.21, -15.2, -23.5, -41.2, -18.6, -14.1, -21.4, 5.86, -12.6, 4.94%” with HOP-62 NSCLC (runs of 1995); “inactive: 37.8, 22.3, 30.3, 23.3 (2×), 33.4 (2×), 10.9, 24.7, 30, 11.1, 14.3, 11.3, 16.3, 31.1, 26.1, 23.6, 38, 13.5, 41.1, 23.7, 15.3, 35.6, 28.3, 21.1, 21.6, 35.2, 29.3, 22.8, 26.6, 18, 15.6, 17.5, 44.5, 42.5, 27.3, 14.8, 34% and active: 7.28, 1.78, 6.84, 2.27, -19.3, -15.6, 6.72, -13.6, 7.79, 2.58, 9.69, 0, 4.33, 0.891, 9.27, -8.87%” in the assay on HOP-62 NSCLC (runs of 1996). Further, the growth entry with HOP-62 NSCLC (runs of 1997) was “inactive: 27.7, 43.5, 14.1, 23.2 (2×), 35.1, 13.7, 19.9, 33.5, 23.5, 21.4, 26.5, 25.5, 42.9, 12.1, 30.9, 14.2, 23.1 (2×), 10.4, 20.3, 19.2, 31, 20.4, 24.7, 15.2, 15.7, 35.2, 30.3, 17.6% and active: -4.3, 5.58, 7.4, 3.54, 4.09, 9.4, 6.9, -8.73, -36.1, 4.62, -16.4%”; in the assay with HOP-62 NSCLC (runs of 1998), “inactive: 17.7, 25.7, 17.4, 23.6, 33.5, 34.8 (2×), 10.8, 43.5, 27.5, 19.5, 32.6, 18.7, 25.9, 23.5, 36.2, 25.8, 48, 30, 11.5% and active: 6.33, -26.6, -13.1, -17.7%”; in the assay with HOP-62 NSCLC (runs of 1999), “inactive: 36.2, 16.9, 26.8, 32.5% and active: 5.13, -11.2, 8.53, 1.79, -31.5, 0.837, -3.64, 5.72, 2.17, -57.6, 2.81%”; in the assay with HOP-62 NSCLC (runs of 2000), “active: 9.75, 1.65, 6.31, 0.756%”; in the assay with NCI-H460 lung (runs of 1991), “inactive: 95.1%, 21%, 14.6% and active: -28.7, -23.8, -23, -5.51, 4.28, -6.01, -61.9, -31.6, -52.8, 0.155, -9.52, -61.4, -31.8, -8.51, -6.94, -52.2, -53.3%”; with NCI-H460 lung (runs of 1992), “active: -52.3, -49.1, -9.52, -10.9, 0.935, -6.1, -33.2, -64.9, -6.3, -33.5, -45.1, -63.1 (2×), -14.2, -5.98, 8.06, -24.8, -32.9, 0.35, -17.1 (2×), -46.1, -60.9, 0.803, -44.6, -73.9, -11.7, -34.6, -60.4, -58.2, -53.1, -80.4, -64.4, -73.1, -55.7, -39.5, -18, -46.3, -41.4, -61.2, -100 (2×), -45, -71.9, -0.923, -64.5, -62.3, -40.9, -31.5, -31.8, -51, -45.9, -20.3, -61.7, -65.2, -60.1, -72, -77.6, -40.3, -30.4, -38, -53.2, -58.1 (2×), -10.2, -74.7, -37.5, -94.5, -98.3, -85.6, -84.7, -71.2, -48.9, -64.1, -49.7 (2×), -40.8, -36.3, -17, -30.1, -60.7, -61.1, -81.9, -89.4, -57.6, -21, -87.5, -32.8, -14.4, -68, -65.6, -37.2, -6.02, -27.3, -23.5, -12.1, -58.5, -76.4, -43.7, -56.5, -46.2, -59, 3.28, 1.54, -51.6, -15.9 (2×), -22.3, -23.1, -42.7, -53.4, 7.07, -11.1, 2.23% and inactive: 11.7%, 44.8%, 92.4%”. Also, the growth result is “active: -37.8, -63.9, -23.9, -4.96, -39.9, 7.59, 1.5, 1.77, 2.21, -42.7, -42.3, 4.19, -35.7, -6.46, 0.0288, -10.6, -4.44, -2.28, -12.5, -46.5, -33.3, -48.4, -9.76, -32.1, -50.4, 5.31, -33, -24.4, 0.767, -42.4, -22.9, -22, -19.3, -64.3, -26.6, -29.8, 0.891, -15.5, -63, -34.1, -13.7, -30.4, 3.45, -24.5, -6.3, -35.5% and inactive: 94.9%, 77%” with NCI-H460 lung (runs of 1993); “active: 3.68, -34.5, -21.2, -17.1, -44.7, -31.1, -31.2, -51.4, -64.6, -18, 1.85, 2.17, -44.3, -12.2, 7.56, -66.4, -4.04, 0.472, -52.2, -28.3, -40.9, -43.2, -4.73, -29.3, -52.1, -19.2, 7.6, -47.3, -14.5, -10.5, -66.1, -55.1, -60.3% and inactive: 11%” with NCI-H460 lung (runs of 1994); “active: -30.8, -81.4, -24.6, -19.4, -33.9, -76, 1.67, 2.24, -86.1, -10.1, 4.87, -65.8, -61.4, -5.21, -5.48, -77.9, -87.4, -12.7, -38.4, -65.3, -35.1, -21.4, -26.2, -26.7, -52.9, -26.9, -31.3, -17, -20.5, -6.16, -66.3, -51.2, -22.3, -43.8, -25.9, -60.1% and inactive: 12.6%” in the assay with NCI-H460 lung (runs of 1995).

The record behind these values is PubChem BioAssay (NCI).
